The source of these data is the supplement of paper PMC8285479.

Several values for one entry are separate records, joined by “and”; a condition that tells them apart may be missing. Identical values can stand only once. Counter-ions that a name gives are not always drawn. ± gives the standard deviation of the averaged measurements. Over roughly 1,900 compounds, “normalised cell viability (NPI; 0 = phenylarsine oxide control, 1 = DMSO control)” has its median near 1; the lowest 2% begin near 0.039. This is one part of the list.

This assay deals with NCI-H1944. Nature of the assay: normalised cell viability (NPI; 0 = phenylarsine oxide control, 1 = DMSO control) (fraction of DMSO control); NCI-H1944 is a non-small cell lung cancer line; higher = more viable cells (less compound toxicity). Particulars: 6 days.
Where [1] appears, read: glucocorticoid arm: hydrocortisone 2.75 uM co-treatment, compound 1 µM.
The mark [2] stands for this setting: glucocorticoid arm: hydrocortisone 2.75 uM co-treatment, compound 5 µM.
[3] abbreviates: glucocorticoid arm: hydrocortisone 2.75 uM pre-treated 2 days and continued, compound 1 µM.
The mark [4] stands for this setting: glucocorticoid arm: hydrocortisone 2.75 uM pre-treated 2 days and continued, compound 5 µM.
Setting [5] is: glucocorticoid arm: vehicle, compound 1 µM.
The mark [6] stands for this setting: glucocorticoid arm: vehicle, compound 5 µM.
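Also: CTB read-out in 384-well plates, mean of triplicate wells, normalised per plate against 1 µM phenylarsine oxide and 0.1% DMSO, compounds added 24 h after seeding.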

As to `Cn1ncnc1[C@H]1c2n[nH]c(=O)c3cc(F)cc(c23)N[C@@H]1c1ccc(F)cc1`, the normalised cell viability came to 0.996 ± 0.012 under setting [1]; 0.934 ± 0.028 under setting [2]; 1.01 ± 0.017 under setting [3]; 1.05 ± 0.015 under setting [4]; 0.436 ± 0.0095 under setting [5]; 0.28 ± 0.016 under setting [6].
For `NCCCCCC(=O)O` [6-Aminohexanoic acid], the normalised cell viability under setting [1] was 0.9763 ± 0.0095; the normalised cell viability under setting [2] turned out to be 0.972 ± 0.022; the normalised cell viability under setting [3] amounted to 1 ± 0.011; the normalised cell viability under setting [4] worked out at 0.971 ± 0.041; the normalised cell viability under setting [5] is 0.99 ± 0.019; the normalised cell viability under setting [6] was determined as 0.9787 ± 0.0067.
Consider `c1ccc2c(CCNc3ccc(Nc4ccncc4)cc3)c[nH]c2c1`, for which the normalised cell viability reads like this: under setting [1], 1.023 ± 0.0058; under setting [2], 0.547 ± 0.02; under setting [3], 1.03 ± 0.01; under setting [4], 0.971 ± 0.038; under setting [5], 0.836 ± 0.042; under setting [6], 0.124 ± 0.0029.
Turning to `COc1ccc2c(Oc3ccc(NC(=O)c4c(C)n(CC(C)(C)O)n(-c5ccccc5)c4=O)nc3)ccnc2c1`, the normalised cell viability was found to be 0.97 ± 0.012 under setting [1]; 0.9527 ± 0.0071 under setting [2]; 0.972 ± 0.02 under setting [3]; 0.946 ± 0.014 under setting [4]; 0.9923 ± 0.008 under setting [5]; 0.983 ± 0.018 under setting [6].
With `Nc1nc2c(ncn2COC(CO)CO)c(=O)[nH]1` [Ganciclovir], the normalised cell viability was 0.998 ± 0.013 under setting [1]; 0.982 ± 0.015 under setting [2]; 1.003 ± 0.0058 under setting [3]; 0.983 ± 0.026 under setting [4]; 0.994 ± 0.0072 under setting [5]; 1.002 ± 0.0076 under setting [6].
Take `C=CC(=O)Nc1cccc(Sc2nc(Nc3ccc(N4CCN(C)CC4)cc3)ncc2Cl)c1`: the normalised cell viability was determined as 0.859 ± 0.026 under setting [1]; 0.658 ± 0.041 under setting [2]; 0.895 ± 0.021 under setting [3]; 0.7497 ± 0.0025 under setting [4]; 0.8727 ± 0.0049 under setting [5]; 0.508 ± 0.082 under setting [6].
As to `CC(C)NC[C@@H](C(=O)N1CCN(c2ncnc3c2[C@H](C)C[C@H]3O)CC1)c1ccc(Cl)cc1`, the normalised cell viability is, setting by setting: under setting [1], 0.804 ± 0.055; under setting [2], 0.54 ± 0.034; under setting [3], 0.822 ± 0.014; under setting [4], 0.624 ± 0.024; under setting [5], 0.9453 ± 0.0075; under setting [6], 0.715 ± 0.04.
`O=C1c2c(O)cc(O)cc2O[C@H](c2ccc(O)c(O)c2)[C@H]1O` (racemic) [(±)-Taxifolin]: the normalised cell viability under setting [1] worked out at 1.01 ± 0.013; the normalised cell viability under setting [2] turned out to be 0.995 ± 0.0078; the normalised cell viability under setting [3] stood at 1.02 ± 0.035; the normalised cell viability under setting [4] came out at 1.01 ± 0.012; the normalised cell viability under setting [5] was 1.017 ± 0.0058; the normalised cell viability under setting [6] worked out at 1.017 ± 0.0058.
Take `Cc1ccc([C@@H]2O[C@H](CO)[C@@H](O)[C@H](O)[C@H]2O)cc1Cc1ccc(-c2ccc(F)cc2)s1` [Canagliflozin]: the normalised cell viability by setting is: under setting [1], 1 ± 0.014; under setting [2], 1.02 ± 0.01; under setting [3], 1.02 ± 0.026; under setting [4], 1.01 ± 0.018; under setting [5], 1.003 ± 0.0058; under setting [6], 0.9973 ± 0.0025.
In the case of `CN1CCN(CC(=O)N2c3ccccc3C(=O)Nc3cccnc32)CC1` [Pirenzepine dihydrochloride], the normalised cell viability runs as follows: under setting [1], 0.985 ± 0.011; under setting [2], 1 ± 0.024; under setting [3], 1.01 ± 0.02; under setting [4], 0.995 ± 0.007; under setting [5], 0.983 ± 0.008; under setting [6], 0.9803 ± 0.0065.
Turning to `C=CC(=O)Nc1cccc(Oc2nc(Nc3ccc(N4CCN(C)CC4)cc3)ncc2Cl)c1`, the normalised cell viability stood at 0.696 ± 0.02 under setting [1]; 0.41 ± 0.0061 under setting [2]; 0.737 ± 0.0062 under setting [3]; 0.521 ± 0.0095 under setting [4]; 0.557 ± 0.015 under setting [5]; 0.118 ± 0.024 under setting [6].
As for `NC[C@@H]1O[C@H](C23CC4CC(CC(C4)C2)C3)Cc2c1ccc(O)c2O`, the normalised cell viability came out at 1.01 ± 0.012 under setting [1]; 0.0562 ± 0.02 under setting [2]; 1.01 ± 0.011 under setting [3]; 0.996 ± 0.077 under setting [4]; 1.01 ± 0.011 under setting [5]; 0.0119 ± 0.0027 under setting [6].
In the case of `COc1cc2ncnc(Nc3cccc(Br)c3)c2cc1OC`, the normalised cell viability turned out to be 0.8763 ± 0.0032 under setting [1]; 0.757 ± 0.017 under setting [2]; 0.887 ± 0.046 under setting [3]; 0.802 ± 0.027 under setting [4]; 0.872 ± 0.031 under setting [5]; 0.774 ± 0.054 under setting [6].
Regarding `CN(C)CCC(c1ccc(Br)cc1)c1ccccn1` (stereo unspecified) [Brompheniramine hydrogen maleate], the normalised cell viability is, setting by setting: under setting [1], 1.03 ± 0.02; under setting [2], 1.01 ± 0.027; under setting [3], 1.02 ± 0.018; under setting [4], 1.01 ± 0.022; under setting [5], 1.01; under setting [6], 0.992 ± 0.01.
Turning to `COc1ccc(Cl)cc1NC(=O)Nc1cc(C)nc2ccccc12`, the normalised cell viability by setting is: under setting [1], 1.01 and 1.02; under setting [5], 1 and 1.01.
